Data on 44 compounds can be found in PMC4336329 (PLoS ONE, 2015).

Out of some 310,000 compounds screened, about 2,200 (0.71%) showed an effect of 50% or more. The effect is printed as a negative number. This is one part of the list.

The target of this assay is human ether-à-go-go-related gene (hERG) potassium channel (human, UniProt Q12809). The assay can be described thus: primary screen, population patch clamp on CHO cells stably expressing hERG.
human ether-à-go-go-related gene (hERG) potassium channel, sequence (Q12809 whole entry, looked up): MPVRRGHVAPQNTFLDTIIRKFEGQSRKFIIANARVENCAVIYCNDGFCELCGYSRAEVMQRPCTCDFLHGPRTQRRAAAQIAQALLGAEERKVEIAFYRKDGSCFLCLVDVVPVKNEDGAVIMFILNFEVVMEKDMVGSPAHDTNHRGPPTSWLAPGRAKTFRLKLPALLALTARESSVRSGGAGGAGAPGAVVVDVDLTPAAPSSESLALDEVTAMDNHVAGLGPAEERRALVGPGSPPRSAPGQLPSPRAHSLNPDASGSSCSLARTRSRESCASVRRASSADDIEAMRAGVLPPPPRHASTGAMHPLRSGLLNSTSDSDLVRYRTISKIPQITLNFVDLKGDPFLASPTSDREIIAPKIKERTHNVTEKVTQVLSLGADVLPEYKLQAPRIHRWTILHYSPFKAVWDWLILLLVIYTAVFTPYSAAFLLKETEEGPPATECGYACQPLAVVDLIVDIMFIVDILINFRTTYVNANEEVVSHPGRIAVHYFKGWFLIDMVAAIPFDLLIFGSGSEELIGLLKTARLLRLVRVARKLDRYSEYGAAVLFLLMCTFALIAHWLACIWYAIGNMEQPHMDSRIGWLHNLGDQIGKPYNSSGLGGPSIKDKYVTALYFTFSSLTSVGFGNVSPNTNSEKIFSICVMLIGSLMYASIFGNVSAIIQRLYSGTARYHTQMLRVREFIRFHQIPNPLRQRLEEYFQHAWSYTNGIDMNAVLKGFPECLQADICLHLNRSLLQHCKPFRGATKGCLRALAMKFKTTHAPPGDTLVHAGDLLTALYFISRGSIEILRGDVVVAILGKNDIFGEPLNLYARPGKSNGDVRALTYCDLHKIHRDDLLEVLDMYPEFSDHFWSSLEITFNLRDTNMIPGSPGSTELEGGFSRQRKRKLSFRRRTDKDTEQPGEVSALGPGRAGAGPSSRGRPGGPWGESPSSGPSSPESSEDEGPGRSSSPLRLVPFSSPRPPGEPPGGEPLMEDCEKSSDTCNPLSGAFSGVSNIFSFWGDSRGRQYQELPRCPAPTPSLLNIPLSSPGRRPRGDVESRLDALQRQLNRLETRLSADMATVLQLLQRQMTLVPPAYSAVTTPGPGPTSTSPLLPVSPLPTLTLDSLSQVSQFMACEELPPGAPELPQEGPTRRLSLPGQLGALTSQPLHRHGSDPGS
On to `CCOC(=O)c1c(C)[nH]c(C(=O)COC(=O)COc2ccccc2C=O)c1C`, for which the “hERG current change (%, negative = inhibition) at 1uM” value came out at 11.3%. Then `CCOC(=O)c1cccc(NC(=O)CSc2nc3cccnc3n2C)c1`, with 2.62%; and `O=C(/C=C/NNC(=O)c1cccc(Br)c1)c1cccc(Br)c1`, with 20.5%. For `Cc1ccc(C(=O)/C=C/c2ccco2)c(O)c1`, the “hERG current change (%, negative = inhibition) at 1uM” value is listed as -3.5%.

`Cc1cc(C)cc(-n2c(C)cc(/C=N\NC(=O)COc3cccc4cccnc34)c2C)c1`: the “hERG current change (%, negative = inhibition) at 1uM” value amounted to 21.1%. Then `Cc1cc(NC(=O)c2ccc(Cn3nc(C)c(Br)c3C)o2)no1`, with 10.4%. As for `CCOc1ccc(OCCCC(=O)NCCOc2ccccc2OC)cc1`, the figure is -19%; as for `COc1ccc(S(=O)(=O)N2CCC(C(=O)Nc3cccc(C(C)=O)c3)CC2)cc1C`, 9.88%. As for `COC(=O)C(Cc1ccc(OC(=O)c2ccccc2Cl)cc1)N1Cc2ccccc2C1=O` (centres unmarked), the figure is 10.3%. For `O=C(Nc1ccccc1N1CCCC1)c1ccccc1F`, the “hERG current change (%, negative = inhibition) at 1uM” value was 6.48%. Then `Cc1ccc(SCC(=O)c2ccc[nH]2)cc1`, with 7.15%; and `CCSc1nnc(NC(=O)CSc2nnc(-c3c[nH]c4ccccc34)n2CC)s1`, with 13.2%; and `O=C(Nc1ccc(Br)cc1)N1CCCC(O)C1` (centres unmarked), with 15.1%. Then `c1ccc(Nc2nnc(SCc3cccc4ccccc34)s2)cc1`, with 14.1%. As for `CC(=O)N1CCN(CC(=O)Nc2ccc(C)c(S(=O)(=O)N(C)C)c2)CC1`, the figure is 14.7%; as for `CC(Sc1nnc(-c2ccccc2F)n1C1CC1)C(N)=O` (centres unmarked), 15.2%; as for `O=C(Cn1ccc(NC(=O)OCc2ccccc2)nc1=O)NCc1ccc2[nH]ccc2c1`, 10.8%. For the compound `Cc1ccc(NC(=O)CCn2cnc3ccccc3c2=O)c(C)c1`, the “hERG current change (%, negative = inhibition) at 1uM” value came out at 4.22%. Then `CCOC(=O)c1c(C)[nH]c2cc(Br)c(O)cc12`, with 12.7%; and `O=C(O)C(=O)O.OC(CNC1CCCCCC1)COc1cccc2ccccc12` (centres unmarked), with 9.67%.

As for `COc1cccc(NC(=O)CN2C(=O)COc3ccc(S(=O)(=O)N4CCOCC4)cc32)c1`, the “hERG current change (%, negative = inhibition) at 1uM” value amounted to 18.9%. Then `C/C(=N\NC(=O)c1cccc(N/N=C(\C)c2ccc([N+](=O)[O-])cc2)c1)c1ccc([N+](=O)[O-])cc1`, with 3.9%.

Regarding `Cc1ccc(S(=O)(=O)N(C)c2ccc(OCC(=O)N3CCCC(C(F)(F)F)C3)cc2)cc1` (centres unmarked), the “hERG current change (%, negative = inhibition) at 1uM” value is -2.11%.

Turning to `COC(=O)C(C)Sc1nnc(-c2ccncc2)o1` (centres unmarked), the “hERG current change (%, negative = inhibition) at 1uM” value is on record as -6.76%.

Turning to `N#Cc1cccc(NC(=O)c2cncn2-c2ccccc2)c1`, the “hERG current change (%, negative = inhibition) at 1uM” value is given as 12%. As for `Cc1ccc(C2CC(c3ccccc3)n3ncnc3N2)cc1` (centres unmarked), the figure is 9.95%; as for `CC(C)(C)CN1CCNC(=O)C1CC(=O)N1CCOc2ccccc2C1` (centres unmarked), 14.7%; as for `Cc1csc(=O)n1CC(=O)OCC(=O)Nc1cc(Cl)ccc1[N+](=O)[O-]`, 0.0411%. As for `O=C(CCc1ccccc1F)N1CCN(c2ccc(C(F)(F)F)cn2)CC1`, the “hERG current change (%, negative = inhibition) at 1uM” value stood at 18.5%. Then `Nc1ccc(C(=O)CC(=O)Nc2ccc(Cl)cc2)cc1`, with -0.954%; and `COc1ccc(S(=O)(=O)N2CCN(CC(=O)Nc3ccccc3Cl)CC2)cc1`, with 10.1%. Regarding `COc1ccc(C)cc1NC(=O)C(Sc1nnc(Nc2ccccc2F)s1)c1ccccc1` (centres unmarked), the “hERG current change (%, negative = inhibition) at 1uM” value worked out at 14.9%. Then `COc1ccc(CN2C(=O)CN=C2Nc2ccc(C)cc2C)cc1.Cl`, with -1.63%. Regarding `Cc1c(Cc2c(C)n(C)n(-c3ccccc3)c2=O)c(=O)n(-c2ccccc2)n1C`, the “hERG current change (%, negative = inhibition) at 1uM” value worked out at 4.05%. With `CCOC(=O)c1cccc(NC(=O)c2ccc3c(c2)OCO3)c1`, the “hERG current change (%, negative = inhibition) at 1uM” value was 2.35%. As for `CCCCCCCC[n+]1cccc(C(=O)N2c3c(nc(N)[nH]c3=O)NC(C)C2C)c1.[I-]` (centres unmarked), the figure is 10.3%. As for `O=C(/C=C/c1cccc([N+](=O)[O-])c1)N1CCN(S(=O)(=O)c2cccs2)CC1`, the “hERG current change (%, negative = inhibition) at 1uM” value is on record as -17.6%. As to `COc1cc(/C=C2\CC/C(=C\c3cc(OC)c(O)c(OC)c3)C2=O)cc(OC)c1O`, the “hERG current change (%, negative = inhibition) at 1uM” value worked out at 8.77%. Then `C/C(CC(=O)Nc1ccc(Cl)c(C(F)(F)F)c1)=N\NC(N)=S`, with 11.2%; and `CC(C)CC(=O)Nc1nnc(CCc2ccccc2)s1`, with 8.54%. Consider `N#Cc1ccc(COC(=O)c2cc(=O)c3ccccc3o2)cc1`, for which the “hERG current change (%, negative = inhibition) at 1uM” value is 9.46%. As for `N#CCc1ccc(NC(=O)Cn2c(=O)oc3ccccc32)cc1`, the figure is 14.8%; as for `N/C(=N\N=C\c1cccc(O)c1)c1nonc1N`, 15.3%. Then `COc1ccc(-c2ccc(CCC(=O)O)n2Cc2ccco2)cc1`, with 6.23%.
